Laboratory results reported in the supplement of paper PMC12217912.
The other results are listed elsewhere or left out. The full chains were built here from the parent and the listed change. Inactive controls read about 0.05.

B1: TEV protease; numbered along this chain (parent)
chain: MGESLFKGPRDYNPISSSICHLTNESDGHTTSLYGIGFGPFIITNKHLFRRNNGTLVVQSLHGVFKVKDTTTLQQHLVDGRDMIIIRMPKDFPPFPQKLKFREPQREERICLVTTNFQTKSMSSMVSDTSCTFPSGDGIFWKHWIQTKDGQCGSPLVSTRDGFIVGIHSASNFTNTNNYFTSVPKNFMELLTNQEAQQWVSGWRLNADSVLWGGHKVFMVKPEEPFQPVKEATQL

Variants of: B1
Assay: raw area under fraction-flipped curve 0-4 h after induction (AUC4h, not background-subtracted), DNA-recorder readout of cleavage of the substrate (dimensionless); higher = more cleavage of the substrate by the protease variant
Settings: temperature: 34 °C; time window: 0-4 h after rhamnose induction
Method: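 In vivo DNA recorder in E. coli TOP10(DE3) ΔrhaA at 34 °C. Each TEVp single-site mutant (parent TEVp 0) is paired with a single-site variant of the 7-mer TEVs (canonical ENLYFQ|S). The substrate sits between flexible linkers in a Bxb1-sfGFP-TEVs-SsrA fusion, so cleavage stabilises Bxb1 and speeds flipping of a recombination array, read by NGS. The value is the raw area under the fraction-flipped curve over 0-4 h after rhamnose induction (AUC4h), with ≥20 reads per time point. It is not background-subtracted; inactive controls average about 0.047.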
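Also: Bxb1 expression induced with 0.2% (w/v) L-rhamnose at OD600 near 0.5, cultures sampled hourly, flipped fraction per protease–substrate barcode pair counted by paired-end Illumina sequencing.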

Variant | area with substrate CNLYFQS | area with substrate DNLYFQS | area with substrate FNLYFQS | area with substrate HNLYFQS | area with substrate LNLYFQS | area with substrate MNLYFQS | area with substrate NNLYFQS | area with substrate PNLYFQS | area with substrate SNLYFQS | area with substrate TNLYFQS | area with substrate VNLYFQS | area with substrate GNLYFQS | area with substrate INLYFQS | area with substrate QNLYFQS | area with substrate WNLYFQS | area with substrate YNLYFQS | area with substrate KNLYFQS | area with substrate RNLYFQS
MGESLFKGPRDYNPISSSICHLTNESDGHTTSLYGIGFGPFIITNKHLFRRNNGTLVVQSLHGVFKVKDTTTLQQHLVDGRDMIIIRMPKDFPPFPQKLKFRHPQREERICLVTTNFQTKSMSSMVSDTSCTFPSGDGIFWKHWIQTKDGQCGSPLVSTRDGFIVGIHSASNFTNTNNYFTSVPKNFMELLTNQEAQQWVSGWRLNADSVLWGGHKVFMVKPEEPFQPVKEATQL [E103H] | 0.0658 | 0.056 | 0.0517 | 0.0608 | 0.0736 | 0.0703 | 0.0669 | 0.061 | 0.061 | 0.0754 | 0.049 | – | – | – | – | – | – | –
MGESLFKGPRDYNPISSSICHLTNESDGHTTSLYGIGFGPFIITNKHLFRRNNGTLVVQSLHGVFKVKDTTTLQQHLVDGRDMIIIRMPKDFPPFPQKLKKREPQREERICLVTTNFQTKSMSSMVSDTSCTFPSGDGIFWKHWIQTKDGQCGSPLVSTRDGFIVGIHSASNFTNTNNYFTSVPKNFMELLTNQEAQQWVSGWRLNADSVLWGGHKVFMVKPEEPFQPVKEATQL [F101K] | 0.0454 | 0.065 | – | – | – | – | – | 0.0659 | – | – | – | – | – | – | – | – | – | –
MGESLFKGPRDYNPISSSICHLTNESDGHTTSLYGIGFGPFIITNKHLFRRNNGTLVVQSLHGVFKVKDTTTLQQHLVDGRDMIIIRMHKDFPPFPQKLKFREPQREERICLVTTNFQTKSMSSMVSDTSCTFPSGDGIFWKHWIQTKDGQCGSPLVSTRDGFIVGIHSASNFTNTNNYFTSVPKNFMELLTNQEAQQWVSGWRLNADSVLWGGHKVFMVKPEEPFQPVKEATQL [P89H] | 0.0687 | 0.0592 | 0.124 | 0.0765 | 0.0754 | – | – | 0.0511 | – | 0.0746 | 0.0513 | 0.0588 | 0.0608 | 0.0703 | 0.0514 | 0.0583 | – | –
MGESLFKGPRDYNPISSSICHLTNESDGHTTSLYGIGFGPFIITNKHLFRRNNGTLVVQSLHGVFKVKDTTTLQQHLVDGRDMIIIRMPKWFPPFPQKLKFREPQREERICLVTTNFQTKSMSSMVSDTSCTFPSGDGIFWKHWIQTKDGQCGSPLVSTRDGFIVGIHSASNFTNTNNYFTSVPKNFMELLTNQEAQQWVSGWRLNADSVLWGGHKVFMVKPEEPFQPVKEATQL [D91W] | 0.0721 | 0.106 | 0.0434 | 0.041 | 0.0634 | – | 0.0539 | 0.0708 | 0.0645 | – | 0.0578 | 0.0676 | 0.054 | – | 0.0548 | – | 0.0858 | 0.0812
MGESLFKGPRDYNPISSSICHLTNESDGHTTSLYGIGFGPFIITNKHLFRRNNGTLVVQSLHGVFKVKDTTTLQQHLVDGRDMIIIRMPKQFPPFPQKLKFREPQREERICLVTTNFQTKSMSSMVSDTSCTFPSGDGIFWKHWIQTKDGQCGSPLVSTRDGFIVGIHSASNFTNTNNYFTSVPKNFMELLTNQEAQQWVSGWRLNADSVLWGGHKVFMVKPEEPFQPVKEATQL [D91Q] | 0.0618 | 0.0673 | 0.0668 | – | – | – | – | – | 0.0632 | 0.0592 | – | – | – | – | – | 0.0651 | 0.0576 | –
MGESLFKGPRDYNPISSSICHLTNESDGHTTSLYGIGFGPFIITNKHLFRRNNGTLVVQSLHGVFKVKDTTTLQQHLVDGRDMIIIRMPKFFPPFPQKLKFREPQREERICLVTTNFQTKSMSSMVSDTSCTFPSGDGIFWKHWIQTKDGQCGSPLVSTRDGFIVGIHSASNFTNTNNYFTSVPKNFMELLTNQEAQQWVSGWRLNADSVLWGGHKVFMVKPEEPFQPVKEATQL [D91F] | 0.054 | 0.0502 | 0.061 | 0.0555 | 0.0658 | 0.0663 | – | 0.0726 | 0.0655 | 0.0665 | – | 0.0587 | – | 0.0618 | 0.0484 | – | 0.0568 | –
MGESLFKGPRDYNPISSSICHLTNESDGHTTSLYGIGFGPFIITNKHLFRRNNGTLVVQSLHGVFKVKDTTTLQQHLVDGRDMIIIRMPKDFAPFPQKLKFREPQREERICLVTTNFQTKSMSSMVSDTSCTFPSGDGIFWKHWIQTKDGQCGSPLVSTRDGFIVGIHSASNFTNTNNYFTSVPKNFMELLTNQEAQQWVSGWRLNADSVLWGGHKVFMVKPEEPFQPVKEATQL [P93A] | 0.0818 | 0.0542 | 0.056 | – | – | – | – | 0.0632 | 0.0637 | 0.0691 | – | – | 0.0641 | – | – | 0.0658 | 0.0631 | 0.0389
MGESLFKGPRDYNPISSSICHLTNESDGHTTSLYGIGFGPFIITNKHLFRRNNGTLVVQSLHGVFKVKDTTTLQQHLVDGRDMIIIRMPKDFPPFPQKPKFREPQREERICLVTTNFQTKSMSSMVSDTSCTFPSGDGIFWKHWIQTKDGQCGSPLVSTRDGFIVGIHSASNFTNTNNYFTSVPKNFMELLTNQEAQQWVSGWRLNADSVLWGGHKVFMVKPEEPFQPVKEATQL [L99P] | 0.0447 | 0.069 | 0.0617 | 0.0737 | 0.0559 | 0.0678 | 0.086 | 0.0671 | 0.0728 | 0.0742 | – | – | – | – | 0.046 | – | 0.0614 | 0.0624
MGESLFKGPRDYNPISSSICHLTNESDGHTTSLYGIGFGPFIITNKHLFRRNNGTLVVQSLHGVFKVKDTTTLQQHLVDGRDMIIIRMPKDYPPFPQKLKFREPQREERICLVTTNFQTKSMSSMVSDTSCTFPSGDGIFWKHWIQTKDGQCGSPLVSTRDGFIVGIHSASNFTNTNNYFTSVPKNFMELLTNQEAQQWVSGWRLNADSVLWGGHKVFMVKPEEPFQPVKEATQL [F92Y] | 0.0646 | 0.0889 | – | 0.0532 | – | – | – | 0.0569 | 0.0691 | 0.0788 | – | 0.0569 | – | – | 0.0794 | – | – | –
MGESLFKGPRDYNPISSSICHLTNESDGHTTSLYGIGFGPFIITNKHLFRRNNGTLVVQSLHGVFKVKDTTTLQQHLVDGRDMIIIRMPKDEPPFPQKLKFREPQREERICLVTTNFQTKSMSSMVSDTSCTFPSGDGIFWKHWIQTKDGQCGSPLVSTRDGFIVGIHSASNFTNTNNYFTSVPKNFMELLTNQEAQQWVSGWRLNADSVLWGGHKVFMVKPEEPFQPVKEATQL [F92E] | 0.0588 | 0.0648 | – | 0.0555 | 0.0417 | – | 0.0516 | 0.0555 | 0.067 | 0.0554 | 0.0577 | – | 0.0566 | – | 0.0726 | – | – | –
